Among the data in PubChem BioAssay AID1346428 (National Center for Advancing Translational Sciences (NCATS), 2018) are activation values, retold here.

SMILES strings stand for the structures. Where “and” joins values, the source holds several entries; their conditions need not be identical. Identical values can stand only once. Screen size: about 48,000 compounds; about 1,200 (2.5%) were called active. Not shown: some 2% with an inconclusive outcome.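 Rule for the calls: active = activation of at least 60% and not above a set upper limit (about 1 call in 100 departs from these limits); inconclusive = activation of 40% to 60%, or above that upper limit; inactive = activation under 40%.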 The list shows a part of the results.

UniProt O75388, sequence (O75388 whole entry, looked up): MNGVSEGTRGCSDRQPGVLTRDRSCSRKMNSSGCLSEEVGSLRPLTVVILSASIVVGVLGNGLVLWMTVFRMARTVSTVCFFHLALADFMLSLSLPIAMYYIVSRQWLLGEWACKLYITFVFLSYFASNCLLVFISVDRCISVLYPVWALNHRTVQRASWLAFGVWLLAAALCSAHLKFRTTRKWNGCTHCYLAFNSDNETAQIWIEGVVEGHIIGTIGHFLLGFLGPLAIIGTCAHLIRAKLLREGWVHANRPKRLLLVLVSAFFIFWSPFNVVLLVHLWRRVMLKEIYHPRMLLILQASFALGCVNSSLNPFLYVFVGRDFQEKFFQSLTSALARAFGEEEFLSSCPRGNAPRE

In this experiment the target is Probable G-protein coupled receptor 32 (Homo sapiens) (UniProt O75388). Description: qHTS for Agonists of Human Resolvin D1 Receptor DRV1. Note: 0% is about no effect. Particulars: CHO-K1 GPR32 beta-arrestin PathHunter luminescence, 90 min; at 76.9 µM; stronger effect = higher value; zero percent set by DMSO-only wells. Put shortly:
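Step 1: seed CHO-K1 GPR32 beta-arrestin cells, 2,500/well, overnight at 37 °C. Step 2: add compounds, 90 min at 37 °C. Step 3: detection reagent, 1 h ambient, then luminescence.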
In the case of `COc1ccccc1CNS(=O)(=O)c1c(C)nc2sccn2c1=O`, the activation was inactive: -5.44%.

For the compound `CCN(Cc1ccccc1)C(=O)CCNS(=O)(=O)c1ccc2c(c1)CC(C)N2C(C)=O` (stereo not drawn), the activation was inactive: -1.45%.

For `Cc1ccc(S(=O)(=O)c2cn(Cc3ccccc3)c3cc(N4CCCC4)c(F)cc3c2=O)cc1C`, the activation was inactive: -0.343%. Turning to `COc1cccc(CNC(=O)CCc2c(C)c3cc4c(C)c(C)oc4cc3oc2=O)c1`, the activation was inactive: -14.9%. Under `CCOC(=O)c1ccccc1NS(=O)(=O)c1c(-c2ccc(C)cc2)csc1C(=O)OC` stands inactive: -3.59%; under `CC(C)(C)C(=O)Nc1ccc2nc(SCC(=O)N3CCCC3)sc2c1`, inactive: -3.14%. Under `O=C(Nc1ccc(NC(=O)c2cccs2)cc1)c1ccc(Br)cc1` stands inactive: -10.5%; under `CC(C)Oc1ccc(CNC(=O)c2ccc(NC(=O)c3nsc4ccccc34)cc2)cc1`, inactive: -15.6%; under `O=C(OCc1ccccc1Cl)c1ccc(-c2nnn(Cc3ccccc3)n2)cc1`, inactive: -8.87%. On to `COc1ccc(/C=C(/C#N)c2nc(-c3ccc(-c4ccccc4)cc3)cs2)cc1`, for which the activation is inactive: 4.88%. Under `CCN(CCCNC(=O)c1cc2cc3cc(C)ccc3nc2s1)c1cccc(C)c1` stands inactive: -18.6%. Under `NCC1CCC(C(=O)Oc2ccc(CCC(=O)O)cc2)CC1` (stereo not drawn) stands inactive: -31.3%; under `Cc1ccc(C)c(NC(=O)C(=O)NCCc2csc(-c3ccc(C(F)(F)F)cc3)n2)c1`, inactive: -12.9%. Under `Brc1ccc(-c2cc3c(N4CCN(c5ccccc5)CC4)nccn3n2)cc1` stands inactive: -6.87%; under `Cc1ccccc1NC(=O)c1sc2nc(-c3ccncc3)ccc2c1N`, inactive: 33.2%. Take `O=C(O)c1[nH]n(-c2ccc(S(=O)(=O)O)cc2)c(=O)c1N=Nc1ccc(S(=O)(=O)O)cc1`: the activation was inactive: -68.5%.

`O=C(CC1C(=O)N(c2ccc(F)cc2)C(=O)N1Cc1cccnc1)Nc1ccc(F)cc1` (stereo not drawn): the activation is inactive: -6.07%.

In the case of `CCCCOc1cccc(C(=O)Nc2cc3nn(-c4ccc(F)cc4)nc3cc2C)c1`, the activation is inactive: -15.3%. As for `CCCN(CCC)CCCNC(=O)Cn1ncc2c3ccccc3n(Cc3ccc(F)cc3)c2c1=O`, the figure is inactive: -6.91%. As for `CCOC(=O)c1ccc(N2C(=O)c3n[nH]c(-c4cccs4)c3C2c2ccc(C)cc2)cc1` (stereo not drawn), the figure is inactive: -5.68%; as for `Cc1cc2ccccc2n1-c1ccc(C(=O)N2CCCCC2)s1`, inactive: 1.38%; as for `COc1cccc(CNC(=O)CCNS(=O)(=O)c2cccc3nsnc23)c1`, inactive: -1.7%. Under `COCCCNC(=O)CCCn1c(=O)c2cccn2c2cccnc21` stands inactive: -13.7%.

Take `Cc1nc(C)c(-c2ccc(SCC(=O)Nc3ccccc3F)nn2)s1`: the activation was inactive: 1.11%.

Turning to `CCn1cc(S(=O)(=O)c2ccccc2)c(=O)c2cc(C)ccc21`, the activation was inactive: 8.97%. Under `COc1cc(OC)cc(C(=O)Nc2ccc(S(=O)(=O)Nc3cc(C)nc(C)n3)cc2)c1` stands inactive: -40.2%. Under `CCOC(=O)c1[nH]c2ccccc2c1NC(=O)c1ccc(OC(C)C)cc1` stands inactive: 23.2%; under `NC(=O)N/N=C/c1ccc([N+](=O)[O-])o1`, inactive: 10.7% and inactive: -5.5%; under `COc1ccc(CCN2CC(C(=O)NCCc3ccc(C)cc3)CC2=O)cc1OC` (stereo not drawn), inactive: -19.6%. As for `CCCCn1c(COc2cccc(OC)c2)nc2ccccc21`, the figure is inactive: -29.3%. Turning to `CC(C)(CC(=O)OCC(=O)Nc1ccc(F)c(Cl)c1)CC1=NS(=O)(=O)c2ccccc2N1`, the activation was active: 115%.

For the compound `COc1cc(NC(=O)c2cc3c(=O)oc4ccc(C)cc4c3s2)cc(OC)c1OC`, the activation is inactive: -5%. In the case of `O=C(CSc1nccn1-c1ccc(Cl)cc1)Nc1nc2ccccc2s1`, the activation is inactive: 3.3%. As for `CCOC(=O)c1c(C)[nH]c(C)c1S(=O)(=O)N1CCC(C(=O)NCc2ccccc2)CC1`, the figure is inactive: -6.72%; as for `Cc1ccc(C)c(OCCSc2nc3ccccc3n2CC(=O)N2CCOCC2)c1`, inactive: -26.2%; as for `CCc1cccc(CC)c1NC(=O)c1cc(S(=O)(=O)N2CCc3ccccc32)cn1C`, inactive: 20%.

For `COC(=O)c1c(NC(=O)CCCOc2ccc(C)cc2)sc2c1C(C(=O)OC)CC2` (stereo not drawn), the activation was inactive: -14.4%. As for `Cc1ccc(CN2CCCn3nc(C(=O)NCCN(C)C)cc3C2=O)cc1`, the figure is inactive: -1.39%. With `COc1ccc(-c2ccc(NS(=O)(=O)c3ccc(F)c(C(F)(F)F)c3)cc2)nn1`, the activation is inactive: 7.37%. Under `COc1cccc(OCc2nc3ccccc3n2CCOc2ccccc2)c1` stands inactive: -15.2%.

Take `Cc1nn2c(=O)cc(COC(=O)c3ccccc3NC(=O)c3ccccc3C)nc2s1`: the activation is inactive: -4.69%. Under `COc1ccc2c(c1)c1c(c(=O)n(Cc3ccccc3)c(=O)n1Cc1cc(C)ccc1C)n2C` stands inactive: -8.43%; under `Cc1nc2ccn(Cc3ccco3)c(=O)c2cc1C(=O)N1CCN(c2ccccc2F)CC1`, inactive: -16.3%. Under `COc1ccc(NC(=O)Cc2coc3cc(C)cc(C)c23)c(OC)c1` stands inactive: -11.6%; under `CC(C)C[C@H](NC(=O)[C@H](CCc1ccccc1)NC(=O)CN1CCOCC1)C(=O)N[C@@H](Cc1ccccc1)C(=O)N[C@@H](CC(C)C)C(=O)[C@@]1(C)CO1`, inactive: -6.68%.

For `Cc1ccc(S(=O)(=O)N2CCCC(c3nc4c(nnn4Cc4ccc(OC(F)(F)F)cc4)c(=O)[nH]3)C2)cc1` (stereo not drawn), the activation was inactive: -0.576%. Under `Cn1nc(-c2ccc(OCC(=O)Nc3ccccc3)cc2)c2ccccc2c1=O` stands inactive: 13.4%.

For the compound `O=C(Cn1c(=O)nc(-c2ccccc2)c2cc(Cl)ccc21)NCc1ccccc1`, the activation is inactive: -2.02%. Under `CCOC(=O)c1ccc2c(c1)N(Cc1cccc([N+](=O)[O-])c1)C(=O)c1ccccc1S2` stands inactive: -4.43%; under `COCCNC(=O)c1cc2n(n1)CCCN(Cc1ccc(C)cc1)C2=O`, inactive: -1.81%. Under `Cc1c(Cl)cccc1Nc1sc(C(=O)c2ccccc2)c(N)c1S(=O)(=O)c1ccccc1` stands inactive: -0.764%; under `CC(=O)Cn1nnc2sc(-c3ccccc3)cc2c1=O`, inactive: -7.95%.

In the case of `CSc1cccc(N2C(=O)N(Cc3ccc([N+](=O)[O-])cc3)c3ccccc3S2(=O)=O)c1`, the activation was inactive: -5.02%. Under `O=C1CC(c2nc3ccccc3n2Cc2c(F)cccc2Cl)CN1c1cccc(C(F)(F)F)c1` (stereo not drawn) stands inactive: -3.05%. As for `CN(Cc1ccccc1)C(=O)c1cc2c(=O)n(C)c3ccccc3c2s1`, the figure is inactive: 4.87%; as for `CCOC(=O)N1CCc2c(sc3c2c(=O)n(Cc2ccccc2)c(=O)n3Cc2c(F)cccc2Cl)C1`, inactive: -14.7%. As for `COc1ccc(NC(=O)CC2C(=O)N(c3ccc(C)cc3)C(=O)N2CCc2ccccc2)cc1` (stereo not drawn), the figure is inactive: -2.6%. On to `COc1ccc(CC(=O)Nc2c(C(=O)Nc3ccccc3F)oc3ccccc23)cc1`, for which the activation was inactive: -8.23%. Under `CCCS(=O)(=O)c1ncc(Cl)c(C(=O)Nc2scc(-c3ccccc3)c2C(=O)OCC)n1` stands active: 97.2%; under `CC(C)c1ccc(CNc2nc(-c3ccco3)nn2S(=O)(=O)c2ccc3ccccc3c2)cc1`, inactive: -18.3%. Under `Cc1cc(C)cc(N2CCn3c2nc2c3c(=O)n(Cc3ccc(Cl)cc3)c(=O)n2C)c1` stands inactive: 0.848%; under `CC(=O)N[C@@H](CCC(=O)O)C(=O)O`, inactive: 1.09%; under `O=S(=O)(c1ccccc1)c1nc(-c2ccc(Cl)cc2Cl)oc1N1CCCCCC1`, inactive: 0.817%. Under `CN(C)CCC[C@@]1(c2ccc(F)cc2)OCc2cc(C#N)ccc21` stands inactive: -2.96%; under `COc1ccc(CNC(=O)Cn2nnc(-c3ccc(S(C)(=O)=O)cc3)n2)cc1`, inactive: -1.99%; under `COc1cccc2c1cc1c(=O)n(CC(=O)N3CCN(c4cc(Cl)ccc4C)CC3)nc(C)n12`, inactive: -11.3%. Turning to `COc1cccc(-c2cc(C(=O)Nc3cc(OC)c(OC)c(OC)c3)on2)c1`, the activation is inactive: -12%.

Consider `O=C(CCCn1c(=O)c2cccn2c2cccnc21)NCc1ccc(F)cc1`, for which the activation was inactive: -29.6%. As for `CCC1CCCCN1CC(=O)N1CCCc2c1c(=O)oc1ccc(OCc3ccccc3)cc21` (stereo not drawn), the figure is inactive: -6.53%; as for `COc1ccc(-c2nc(Cn3c(SCc4ccc(C)cc4)nc4cccnc43)c(C)o2)cc1OC`, inactive: -16.6%; as for `CCOc1ccc(-n2c(C)nc3cc(C(=O)NCCC4=CCCCC4)ccc32)cc1`, inactive: 1.39%. Under `COc1ccc(CNC(=O)CCC(=O)N2CCSc3ccccc32)cc1` stands inactive: -8.1%. As for `COc1ccc(C(=O)CC2(O)C(=O)N(Cc3ccccc3Cl)c3ccccc32)cc1` (stereo not drawn), the figure is inactive: -3.81%; as for `CCN1CCN(c2ccc(NS(=O)(=O)c3c(C)nc4sccn4c3=O)cc2Cl)CC1`, inactive: 4.47%. As to `COc1ccc(-c2nnc(SCC(=O)Nc3ccc(Cl)cc3)s2)cc1`, the activation is inactive: -3.29%. As for `CCOC(=O)c1ccc(NC(=O)C2=C(C)Nc3nc(SCc4ccc(Cl)cc4)nn3C2c2ccc(OC)cc2)cc1` (stereo not drawn), the figure is inactive: 3.16%.

`Nc1ncc(S(=O)(=O)NCc2ccc(Cl)cc2)cn1`: the activation is inactive: -0.594%.

`COc1ccc(Cl)cc1NC(=O)Cn1cc(C(=O)c2ccncc2)c(=O)c2cc(C)ccc21`: the activation is inactive: -21.5%. Under `CC(C)NC(=O)c1ccc(-n2c(-c3ccccc3)cc3c2CCCCC3)cc1` stands inactive: -32.2%. As for `CCC(Sc1nc2cc(OC)c(OC)cc2c(=O)n1CCc1ccc(Cl)cc1)C(=O)NCCOC` (stereo not drawn), the figure is inactive: -16.5%; as for `Cc1ccc(NC(=O)N(Cc2cn(C)c3ccccc23)C2CCCCC2)cc1C`, inactive: -7.4%; as for `O=C(CSc1nc2ccccc2n1Cc1ccccc1F)NCc1ccccc1`, inactive: -9.63%. Under `Cc1ccccc1C(=O)Nc1cccc(C(=O)OCc2cc(=O)n3c4c(sc3n2)CCCC4)c1` stands inactive: -13.1%.
